This is one part of the list.

Consider 42 sequences from publication PMC7819943, “Rice protein-binding microarrays: a tool to detect cis-acting elements near promoter regions in rice”.

This assay deals with T1, OsWOX13 (Oryza sativa, UniProt Q5QMM3 1-267).
T1 sequence: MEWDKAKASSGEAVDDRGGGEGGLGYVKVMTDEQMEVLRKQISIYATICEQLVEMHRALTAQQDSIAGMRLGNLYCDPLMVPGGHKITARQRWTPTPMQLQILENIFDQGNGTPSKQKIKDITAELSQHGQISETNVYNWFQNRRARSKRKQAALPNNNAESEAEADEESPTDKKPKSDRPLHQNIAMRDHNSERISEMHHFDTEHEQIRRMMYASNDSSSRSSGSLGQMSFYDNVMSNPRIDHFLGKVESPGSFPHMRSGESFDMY
Description: protein-binding microarray (RPBM); PBS, 2% BSA, 51.3 ng/ul salmon testes DNA, 50 uM zinc acetate, 200 nM TF, 25 C, 1 h; high values mean tight binding. Conditions: protein: recombinant; tags: N-terminal polyhistidine and DsRed monomer fusion (pET32a); label: CyDye5-dUTP incorporated in the synthesized complementary strand; 3' TTTTT single-stranded linker to array surface; dsDNA, one strand shown. The method in brief: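 Per-feature fluorescence intensity (arbitrary units), read on an Axon 4000B scanner, is the binding signal. Transcription factors carrying an N-terminal polyhistidine tag and DsRed fusion were expressed in E. coli BL21-CodonPlus and purified on Ni–NTA. A custom Agilent array, made double-stranded by primer extension with Cy5-dUTP and blocked with 2% BSA, was incubated with 200 nM protein in PBS, 2% BSA, salmon testes DNA and 50 µM zinc acetate at 25 °C for 1 h and then washed.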
As to “CTCATTCAATTAGCGCCGAAGTAATAGTCAGAATTTCCCACGGAGTCACCTAGTGCAG”, the binding signal is 16000 fluorescence intensity (a.u.). In the case of “CCTACAGTTGAGTGATTAACTGTACGATTATAGTTTTGTTCGGAGTCACCTAGTGCAG”, the binding signal was 5040 fluorescence intensity (a.u.).

On to “TATCACTACTATAGGATTGATTTTCCTGAACGTCACCCCACGGAGTCACCTAGTGCAG”, for which the binding signal is 4510 fluorescence intensity (a.u.). The value for “ACTCAACCAGATTGATAATAGTCAACTCGTCACATTAGTTCGGAGTCACCTAGTGCAG” was 15600 fluorescence intensity (a.u.).

As to “TGGAGTAATTAGAAATGCATATAAATTGAACCGACAAATACGGAGTCACCTAGTGCAG”, the binding signal is 15100 fluorescence intensity (a.u.). The value for “ATTAAGCCTAATTAATTCGTCATTAACAAATATTTATTACCGGAGTCACCTAGTGCAG” was 12400 fluorescence intensity (a.u.). Consider “TTGTATGGCTTGATTGCAACCAAGAAACTCTTCTTAGCTTCGGAGTCACCTAGTGCAG”, for which the binding signal is 9080 fluorescence intensity (a.u.).

Turning to “TTTGACCTTTGTTCTGATTGCTACAACGAGGGAAAGTTTACGGAGTCACCTAGTGCAG”, the binding signal is 4690 fluorescence intensity (a.u.).

Consider “TTCTTCTAGAGGAGGAGGAGGCGGCGGGGCGGCGGGCGAGCGGAGTCACCTAGTGCAG”, for which the binding signal is 4480 fluorescence intensity (a.u.). For “CGAGCAATCACCTCCACTAATCACCACCACCCCTATCTTGCGGAGTCACCTAGTGCAG”, the binding signal is 15200 fluorescence intensity (a.u.). To “TTCATAAATTATCTTTTGTTTGCAAATATGCCGTTTCGCTCGGAGTCACCTAGTGCAG” belongs 20600 fluorescence intensity (a.u.).

Turning to “TGAAATGTGAACAATCAAAATAAACATGATCTCATTGTCCCGGAGTCACCTAGTGCAG”, the binding signal is 10400 fluorescence intensity (a.u.).

Consider “TTCTGATTAAGGGGTACAAATTAGATTCGGACTACTTTAACGGAGTCACCTAGTGCAG”, for which the binding signal is 13500 fluorescence intensity (a.u.). The value for “ACATTTTCCTTTTCCTTTTCCTTCCTTTTCTTTTCCTTTTCGGAGTCACCTAGTGCAG” was 3150 fluorescence intensity (a.u.); that for “TACAACTACTGCTGATTGCTTCAGACTGATCCAAGAAAGGCGGAGTCACCTAGTGCAG” was 12000 fluorescence intensity (a.u.); that for “CATGATTTACCTAAATCTCGGTTGGAATAATTTCACCGGACGGAGTCACCTAGTGCAG” was 33900 fluorescence intensity (a.u.). To “AGGATAATTGTATAAGTATTTGTCAACTTTGTAATTCTCTCGGAGTCACCTAGTGCAG” belongs 12100 fluorescence intensity (a.u.); to “TATTGATTAAACATAATGGTCTCACAATATTTTAGTTACCCGGAGTCACCTAGTGCAG”, 27300 fluorescence intensity (a.u.); to “GCCATAAATTTGATCATGTTTAAGATGGTTTATTAGTTTACGGAGTCACCTAGTGCAG”, 11000 fluorescence intensity (a.u.). The value for “CCTTAATTAATTAATTAATTACGTGCTATTTATTTCTTGGCGGAGTCACCTAGTGCAG” was 55300 fluorescence intensity (a.u.); that for “TTTCTTAATTGTATTTCTATATGGACTTGATACCCTTCTTCGGAGTCACCTAGTGCAG” was 18900 fluorescence intensity (a.u.); that for “TTCAGTGCCAATCAGGTAATCAGTGTGAGAGTCTTTTCAACGGAGTCACCTAGTGCAG” was 11500 fluorescence intensity (a.u.). As for “ACAAGTTTAATTTCTGCATAATTACAGTTCATCTGAGGTTCGGAGTCACCTAGTGCAG”, the binding signal is 18400 fluorescence intensity (a.u.). Consider “ATATATGATTTGGACTTGCTCTAACTATTTTGTTTGAACACGGAGTCACCTAGTGCAG”, for which the binding signal was 14500 fluorescence intensity (a.u.).

In the case of “CGAAGATGATAATATAAATTTGGTACCTCTAGATATTTGGCGGAGTCACCTAGTGCAG”, the binding signal is 6520 fluorescence intensity (a.u.). As to “TGCTTTAAATTACATGGTTACTTCACCTTGAGAGTTGAGACGGAGTCACCTAGTGCAG”, the binding signal is 4920 fluorescence intensity (a.u.). As to “GATGATGGACGGATAAGATTGTAGCTAATGCCACCCTCTGCGGAGTCACCTAGTGCAG”, the binding signal was 31600 fluorescence intensity (a.u.). The value for “TCATTGAAAGATTTCACAAATTATGGCACCACGTGGACCACGGAGTCACCTAGTGCAG” was 4490 fluorescence intensity (a.u.); that for “TGTTTCTTTAATTGCTGCGTTTAATCACTCTCCTCCTCACCGGAGTCACCTAGTGCAG” was 8780 fluorescence intensity (a.u.); that for “GATTTATTGACATCTATATGAATATAGACATTGATAAAAGCGGAGTCACCTAGTGCAG” was 8710 fluorescence intensity (a.u.). As for “GTATAATTTGCTAAATTTTCACAATGGCAGGTGGCATTGTCGGAGTCACCTAGTGCAG”, the binding signal is 28100 fluorescence intensity (a.u.). To “ATGAGTGATAACTAATTTCTCGTATTGACTCATGAGAGATCGGAGTCACCTAGTGCAG” belongs 12700 fluorescence intensity (a.u.); to “TTAAAAGTTAAAGCAATTTAATCAAGTGAATTAATGATGACGGAGTCACCTAGTGCAG”, 4150 fluorescence intensity (a.u.). As for “TTTGATGAATCCTGATTCCACTATCGTCGTCGTCGTCATCCGGAGTCACCTAGTGCAG”, the binding signal is 5200 fluorescence intensity (a.u.). The value for “TGGTATTAACGTATGATTGATTGAGTTTTAATTATTAGAACGGAGTCACCTAGTGCAG” was 37400 fluorescence intensity (a.u.). To “TTTAAATGGGCAATACACTGACGGGCTTTGTAGCTGTTTGCGGAGTCACCTAGTGCAG” belongs 10000 fluorescence intensity (a.u.); to “AAGATTGCCAACCAGATTCGCTCTGCTCTCGTAGCCACTTCGGAGTCACCTAGTGCAG”, 3620 fluorescence intensity (a.u.); to “GAATGGTGATTGCAATCAGAATCTAGGTAGGCCGTCGGTGCGGAGTCACCTAGTGCAG”, 51100 fluorescence intensity (a.u.). Regarding “GCGGCGTAATTGTAGTCAGCACTACCGATCAGCCCCTATTCGGAGTCACCTAGTGCAG”, the binding signal is 5580 fluorescence intensity (a.u.). As to “GGAATTGAAATTGGCTTATGCATGCATATGTTCCATTTGACGGAGTCACCTAGTGCAG”, the binding signal is 16200 fluorescence intensity (a.u.). The value for “AGTGATAGATCATGTGTGTTCAGTTATGGCCCTCATGGGACGGAGTCACCTAGTGCAG” was 14100 fluorescence intensity (a.u.). As to “CCAGTTGAAATCACGCATTTGACAGCTTAATTTACTCTGTCGGAGTCACCTAGTGCAG”, the binding signal was 9540 fluorescence intensity (a.u.).
